# Experimental data reported in PubChem BioAssay AID624296 (National Center for Advancing Translational Sciences (NCATS), 2012).
# Screen size: about 350,000 compounds; about 9,900 (2.8%) were called active. Inconclusive results, whose numbers are uncertain, are shown with a selection of clear calls. Calls follow the shape of the dose curve; as a rule, active = well fitted activation curve with a large enough effect; inconclusive = small, poorly fitted or top-dose-only effect; inactive = no such curve, though single readings can be large or run the other way. No potency is given beside an inconclusive call; the fits are too rough.
# Test: A quantitative high throughput screen for small molecules that induce DNA re-replication in MCF 10a normal breast cells. Also: nearly all actives have a fitted effect of over 50% in size.
# Conditions: MCF 10A DNA re-replication, Hoechst nuclear intensity, 48 h; series mostly up to 46.1 µM
# Potency is read from the fitted curve at half-maximal effect; tags tell the direction and shape of the fitted curve.
row,Compound,Potency
1,C[C@H](NC(=O)c1nc[nH]c1C(=O)NCC(=O)OCc1ccccc1)c1ccccc1,"inconclusive [activator, single point]"
2,CCOC(=O)C1=C(C)N(C[C@@H]2CC[C@@H](Cc3ccc(-c4ccccc4)cc3)O2)C(=O)NC1c1ccc([N+](=O)[O-])cc1 (stereo partly drawn),inactive
3,COc1ccc2cc1Oc1ccc(cc1)C[C@H]1c3c(cc(OC)c4c3Oc3c(ccc5c3[C@H](C2)N(C)CC5)O4)CCN1C,"inconclusive [activator, partial curve, poor fit]"
4,CC(=O)Nc1ccc(C(=O)c2ccccc2)cc1,inactive
5,NC(=O)c1ccc(NC(=O)COC(=O)c2ccc(Br)c(S(=O)(=O)N3CCOCC3)c2)cc1,inactive
6,CSc1nsc(SCC(=O)Nc2cccc(NC(C)=O)c2)n1,inactive
7,CCCCCCC[C@@H](C/C=C/CCC(=O)O)OC,inactive
8,CN(C)c1cc[n+](CC(=O)c2ccc(Br)cc2)cc1,inactive
9,O=C(CO/N=C/c1ccccc1Cl)N1CCCc2ccccc21,"inconclusive [activator, partial curve, poor fit]"
10,Cc1nc2scc(-c3ccccc3)c2c(=O)n1N=C1C=CC(=O)C=C1,"inconclusive [activator, single point]"
11,O=C(Nc1cccc(Cl)c1)c1ccc(NCCCN2CCOCC2)c([N+](=O)[O-])c1,"inconclusive [activator, partial curve, poor fit]"
12,O=C(O)c1ccc(N2C(=O)/C(=C\c3ccccc3)N=C2c2ccccc2)cc1,"inconclusive [activator, single point]"
13,Cc1ccc(S(=O)(=O)N/N=C/c2cc(Br)ccc2O)cc1,"inconclusive [activator, partial curve, poor fit]"
14,Cc1cc(C)nc(NC(N)=NC2CCCCC2)n1,inactive
15,O=C(CN1CCC(n2nnc3cc(C(F)(F)F)ccc32)CC1)NCc1cccs1,"inconclusive [activator, single point]"
16,Cc1ccc(CNC(=O)c2cccc3c2C(=O)c2ccc(N4CCOCC4)cc2S3(=O)=O)cc1,"inconclusive [activator, single point]"
17,CN(c1ccc(F)cc1)S(=O)(=O)c1ccc(Cl)c(C(=O)OCC(=O)NC2CC2)c1,inactive
18,Cc1ccc2[nH]c(CNC(=O)c3ccc(F)cc3)cc2c1,"inconclusive [activator, single point]"
19,CCOc1ccc(C(=O)Nc2nnc(NC(=S)Nc3ccccc3)s2)cc1,inactive
20,CCCCC(CC)COC1(c2ccccc2)OC(=O)c2ccccc21 (stereo not drawn),"inconclusive [activator, partial curve, poor fit]"
21,NNC(=S)Nc1ccccc1Cl,"inconclusive [activator, single point]"
22,C=C(C)COc1ccc(-c2nc(N)nc(C(F)(F)F)c2-c2ccc(OC)cc2)c(O)c1,active: 2.59 µM

row,Compound,Potency
1,N#Cc1c(Sc2ncc(C(F)(F)F)cc2Cl)nsc1C/C=N\OCc1c(F)cccc1Cl,"inconclusive [activator, single point]"
2,CCc1cc2c(=O)n(CC(C)C)cnc2s1,inactive
3,CCc1ccc(Oc2coc3cc(OCC(=O)Nc4cc(C)ccc4C)ccc3c2=O)cc1,"inconclusive [activator, full curve, poor fit]"
4,O=C(NCc1nnc(SCc2ccccc2)n1-c1ccccc1)C12CC3CC(CC(C3)C1)C2,inactive
5,CCC(C)NC(=O)CN(c1ccc(Cl)c(Cl)c1)S(C)(=O)=O (stereo not drawn),inactive
6,COc1ccc(-n2nnnc2SCC(=O)c2ccc3c(c2)OCCO3)c(OC)c1,inactive
7,Cc1cc(C(=O)OCC(=O)Nc2c(F)cccc2F)c(C)n1-c1ccccc1,"inconclusive [activator, single point]"
8,O=C(Nc1ccc(Oc2cccnc2)cc1)C1CCN(Cc2cc(Cl)ccc2O)CC1,"inconclusive [activator, single point]"
9,c1ccc(-c2cn(-c3ccccc3)c3ncnc(NCCCN4CCOCC4)c23)cc1,"inconclusive [activator, partial curve, poor fit]"
10,O=C(C[C@@H]1C/C=C\CC[C@@H](Cc2ccc(F)cc2)C(=O)OC[C@@H]2CCCN2C1=O)NCCO,"inconclusive [activator, single point]"
11,O=C(O)CCCC(=O)Nc1ccc(S(=O)(=O)Nc2nccs2)cc1,"inconclusive [activator, single point]"
12,COCC1CCN(C(=O)c2cc(COc3ccc(F)cc3F)on2)C1 (stereo not drawn),"inconclusive [activator, partial curve, poor fit]"
13,CC(=O)Nc1ccc(NC(=O)COc2ccccc2C(=O)Nc2cccc(Cl)c2Cl)cc1,"inconclusive [activator, full curve, poor fit]"
14,CC(C)OCCCNC(=O)CCN1C(=O)COc2ccccc21,"inconclusive [activator, single point]"
15,COc1ccc(-c2nn(-c3ccccc3)cc2/C=N/NC(=O)c2ccc(Br)o2)cc1,"inconclusive [activator, full curve, poor fit]"
16,CN1CCN(c2nc(-c3ccc(C(C)(C)C)cc3)nc3ccccc23)CC1,inactive
17,CN1CCN(C(=S)SCC(=O)Nc2nc(-c3ccccc3)c(-c3ccccc3)o2)CC1,active: 11.6 µM
18,CCOC(=O)c1nnc(-c2ccccc2)nc1Oc1ccccc1Cl,"inconclusive [activator, single point]"
19,Cc1cc(C(=O)COC(=O)c2n[nH]c3ccccc23)c(C)n1C,inactive
20,CCOc1cc(-c2c(C#N)c(N)nc3c2CCc2ccccc2-3)ccc1O,"inconclusive [activator, single point]"
21,O=C(N/N=C/c1ccc(-c2ccc(Br)cc2)o1)c1ccc2c(c1)OCO2,"inconclusive [activator, single point]"
